Assay results from the supplement of paper PMC4604168 (melanoma cell lines).
Some of the results follow. Most values come without repeats; read them as rough.

Tested on: IST-MEL1
Test: cell count relative to DMSO control; melanoma cells; higher = more viable cells
Conditions: library dose: low library concentration; 72 h
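Note: cell number obtained by counting DAPI-stained nuclei in high-throughput microscope images with image analysis software, screen run in 1,536-well plates.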

Row | SMILES | cell count
1 | CC[C@]1(O)C[C@H]2CN(CCc3c([nH]c4ccccc34)[C@@](C(=O)OC)(c3cc4c(cc3OC)N(C=O)[C@H]3[C@@](O)(C(=O)OC)[C@H](OC(C)=O)[C@]5(CC)C=CCN6CC[C@]43[C@@H]65)C2)C1 [vincristine] + Cn1c(=O)n(-c2ccc(C(C)(C)C#N)cc2)c2c3cc(-c4cnc5ccccc5c4)ccc3ncc21 [NVP-BEZ235] (first compound 0.0001 µM, partner dose 0.004 µM) | 87.2%
2 | CC[C@]1(O)C[C@H]2CN(CCc3c([nH]c4ccccc34)[C@@](C(=O)OC)(c3cc4c(cc3OC)N(C=O)[C@H]3[C@@](O)(C(=O)OC)[C@H](OC(C)=O)[C@]5(CC)C=CCN6CC[C@]43[C@@H]65)C2)C1 [vincristine] + CO[C@H]1C[C@@H]2CC[C@@H](C)[C@@](O)(O2)C(=O)C(=O)N2CCCC[C@H]2C(=O)O[C@H]([C@H](C)C[C@@H]2CC[C@@H](OCCO)[C@H](OC)C2)CC(=O)[C@H](C)/C=C(\C)[C@@H](O)[C@@H](OC)C(=O)[C@H](C)C[C@H](C)/C=C/C=C/C=C/1C [everolimus] (first compound 0.0001 µM, partner dose 0.02 µM) | 69.1%
3 | N#CC[C@H](C1CCCC1)n1cc(-c2ncnc3[nH]ccc23)cn1 [ruxolitinib] + CC[C@]1(O)C[C@H]2CN(CCc3c([nH]c4ccccc34)[C@@](C(=O)OC)(c3cc4c(cc3OC)N(C=O)[C@H]3[C@@](O)(C(=O)OC)[C@H](OC(C)=O)[C@]5(CC)C=CCN6CC[C@]43[C@@H]65)C2)C1 [vincristine] (first compound 1 µM, partner dose 0.0001 µM) | 99.5%
4 | N#CC[C@H](C1CCCC1)n1cc(-c2ncnc3[nH]ccc23)cn1 [ruxolitinib] + O=C(Nc1ccccc1)c1cc([N+](=O)[O-])ccc1Cl [GW9662] (first compound 1 µM, partner dose 2 µM) | 94.5%
5 | N#CC[C@H](C1CCCC1)n1cc(-c2ncnc3[nH]ccc23)cn1 [ruxolitinib] + CC(=O)O[C@@]12CO[C@@H]1C[C@H](O)[C@@]1(C)C(=O)[C@H](O)C3=C(C)[C@@H](OC(=O)[C@H](O)[C@@H](NC(=O)OC(C)(C)C)c4ccccc4)C[C@@](O)([C@@H](OC(=O)c4ccccc4)[C@H]21)C3(C)C [Docetaxel] (first compound 1 µM, partner dose 0.0001 µM) | 66.7%
6 | N#CC[C@H](C1CCCC1)n1cc(-c2ncnc3[nH]ccc23)cn1 [ruxolitinib] + COc1ccc(Cl)c(Nc2nc3ccccc3nc2NS(=O)(=O)c2cccc(NC(=O)C(C)(C)N)c2)c1 [XL147] (first compound 1 µM, partner dose 0.8 µM) | 101%
7 | N#CC[C@H](C1CCCC1)n1cc(-c2ncnc3[nH]ccc23)cn1 [ruxolitinib] + Cc1cn(-c2cc(NC(=O)c3ccc(C)c(Nc4nccc(-c5cccnc5)n4)c3)cc(C(F)(F)F)c2)cn1 [nilotinib] (first compound 1 µM, partner dose 0.2 µM) | 95.4%
8 | CC[C@]1(O)C[C@H]2CN(CCc3c([nH]c4ccccc34)[C@@](C(=O)OC)(c3cc4c(cc3OC)N(C=O)[C@H]3[C@@](O)(C(=O)OC)[C@H](OC(C)=O)[C@]5(CC)C=CCN6CC[C@]43[C@@H]65)C2)C1 [vincristine] + C[C@@H](Oc1cc(-c2cnn(C3CCNCC3)c2)cnc1N)c1c(Cl)ccc(F)c1Cl [Crizotinib] (first compound 0.0001 µM, partner dose 0.2 µM) | 97.2%
9 | N#CC[C@H](C1CCCC1)n1cc(-c2ncnc3[nH]ccc23)cn1 [ruxolitinib] + COc1ccc(C2=N[C@@H](c3ccc(Cl)cc3)[C@@H](c3ccc(Cl)cc3)N2C(=O)N2CCNC(=O)C2)c(OC(C)C)c1 [Nutlin-3] (first compound 1 µM, partner dose 0.1 µM) | 106%
10 | N#CC[C@H](C1CCCC1)n1cc(-c2ncnc3[nH]ccc23)cn1 [ruxolitinib] + Cn1sc(=O)n(Cc2ccccc2)c1=O [TDZD-8] (first compound 1 µM, partner dose 0.4 µM) | 104%
11 | CC[C@]1(O)C[C@H]2CN(CCc3c([nH]c4ccccc34)[C@@](C(=O)OC)(c3cc4c(cc3OC)N(C=O)[C@H]3[C@@](O)(C(=O)OC)[C@H](OC(C)=O)[C@]5(CC)C=CCN6CC[C@]43[C@@H]65)C2)C1 [vincristine] + O=C(O)[C@@H]1[O][Sb](=[O])([O][Sb]2(=[O])[O][C@H]([C@H](O)CO)[C@H](O)[C@H](C(=O)O)[O]2)[O][C@H]([C@H](O)CO)[C@@H]1O [stibogluconate] (first compound 0.0001 µM, partner dose 2 µM) | 105%
12 | N#CC[C@H](C1CCCC1)n1cc(-c2ncnc3[nH]ccc23)cn1 [ruxolitinib] + Nc1cccc2c1CN(C1CCC(=O)NC1=O)C2=O [lenalidomide] (first compound 1 µM, partner dose 1 µM) | 85.3%
13 | CC[C@]1(O)C[C@H]2CN(CCc3c([nH]c4ccccc34)[C@@](C(=O)OC)(c3cc4c(cc3OC)N(C=O)[C@H]3[C@@](O)(C(=O)OC)[C@H](OC(C)=O)[C@]5(CC)C=CCN6CC[C@]43[C@@H]65)C2)C1 [vincristine] + C#Cc1cccc(Nc2ncnc3cc(OCCOC)c(OCCOC)cc23)c1 [erlotinib] (first compound 0.0001 µM, partner dose 0.8 µM) | 90.3%
14 | CC[C@]1(O)C[C@H]2CN(CCc3c([nH]c4ccccc34)[C@@](C(=O)OC)(c3cc4c(cc3OC)N(C=O)[C@H]3[C@@](O)(C(=O)OC)[C@H](OC(C)=O)[C@]5(CC)C=CCN6CC[C@]43[C@@H]65)C2)C1 [vincristine] + Nc1cccc2c1CN(C1CCC(=O)NC1=O)C2=O [lenalidomide] (first compound 0.0001 µM, partner dose 1 µM) | 100%
15 | N#CC[C@H](C1CCCC1)n1cc(-c2ncnc3[nH]ccc23)cn1 [ruxolitinib] + NC1(c2ccc(-c3nc4ccn5c(=O)[nH]nc5c4cc3-c3ccccc3)cc2)CCC1 [MK2206] (first compound 1 µM, partner dose 0.4 µM) | 94.4%
16 | N#CC[C@H](C1CCCC1)n1cc(-c2ncnc3[nH]ccc23)cn1 [ruxolitinib] + C#Cc1cccc(Nc2ncnc3cc(OCCOC)c(OCCOC)cc23)c1 [erlotinib] (first compound 1 µM, partner dose 0.8 µM) | 91.4%
17 | Cc1cc(Nc2cc(N3CCN(C)CC3)nc(Sc3ccc(NC(=O)C4CC4)cc3)n2)n[nH]1 [Tozasertib] + O=c1cc(-c2cccc3c2Sc2ccccc2S3)oc(N2CCOCC2)c1 [KU55933] (first compound 0.006 µM, partner dose 1 µM) | 98.9%
18 | N#CC[C@H](C1CCCC1)n1cc(-c2ncnc3[nH]ccc23)cn1 [ruxolitinib] + COCC[n+]1c2c(n(Cc3cnccn3)c1C)C(=O)c1ccccc1C2=O [YM155] (first compound 1 µM, partner dose 0.0004 µM) | 92.7%
19 | CC[C@]1(O)C[C@H]2CN(CCc3c([nH]c4ccccc34)[C@@](C(=O)OC)(c3cc4c(cc3OC)N(C=O)[C@H]3[C@@](O)(C(=O)OC)[C@H](OC(C)=O)[C@]5(CC)C=CCN6CC[C@]43[C@@H]65)C2)C1 [vincristine] + NC(=O)c1ccc(N(C(N)=O)c2c(F)cccc2F)nc1-c1ccc(F)cc1F [VX702] (first compound 0.0001 µM, partner dose 0.4 µM) | 86.9%
20 | CC[C@]1(O)C[C@H]2CN(CCc3c([nH]c4ccccc34)[C@@](C(=O)OC)(c3cc4c(cc3OC)N(C=O)[C@H]3[C@@](O)(C(=O)OC)[C@H](OC(C)=O)[C@]5(CC)C=CCN6CC[C@]43[C@@H]65)C2)C1 [vincristine] + CC(=O)c1c(C)c2cnc(Nc3ccc(N4CCNCC4)cn3)nc2n(C2CCCC2)c1=O [palbociclib] (first compound 0.0001 µM, partner dose 0.04 µM) | 96.3%
21 | N#CC[C@H](C1CCCC1)n1cc(-c2ncnc3[nH]ccc23)cn1 [ruxolitinib] + CCCS(=O)(=O)Nc1ccc(F)c(C(=O)c2c[nH]c3ncc(Cl)cc23)c1F [PLX4720] (first compound 1 µM, partner dose 0.08 µM) | 97.7%
22 | Cc1cc(Nc2cc(N3CCN(C)CC3)nc(Sc3ccc(NC(=O)C4CC4)cc3)n2)n[nH]1 [Tozasertib] + N#CC[C@H](C1CCCC1)n1cc(-c2ncnc3[nH]ccc23)cn1 [ruxolitinib] (first compound 0.006 µM, partner dose 1 µM) | 88.1%
23 | Cc1cc(Nc2cc(N3CCN(C)CC3)nc(Sc3ccc(NC(=O)C4CC4)cc3)n2)n[nH]1 [Tozasertib] + NC(=O)c1ccc(N(C(N)=O)c2c(F)cccc2F)nc1-c1ccc(F)cc1F [VX702] (first compound 0.006 µM, partner dose 0.4 µM) | 101%
24 | CC[C@]1(O)C[C@H]2CN(CCc3c([nH]c4ccccc34)[C@@](C(=O)OC)(c3cc4c(cc3OC)N(C=O)[C@H]3[C@@](O)(C(=O)OC)[C@H](OC(C)=O)[C@]5(CC)C=CCN6CC[C@]43[C@@H]65)C2)C1 [vincristine] + C=C(c1ccc(C(=O)O)cc1)c1cc2c(cc1C)C(C)(C)CCC2(C)C [Bexarotene] (first compound 0.0001 µM, partner dose 2 µM) | 105%
